# Test results published in the supplement of paper PMC8728848.
# Some of the results follow.
# B1: LecB LY19 (Pseudomonas aeruginosa) (protein)
# chain: MATQGVFTLPANTQFGVTAFANSAGTQTVNVQVNNETVATFTGQSTNNGIIGSKVLNSGGGGKVQILVSVNGRSSDLVSAQVILANELNFALVGSEDSTDNDYNDAVVVINWPLG
# How the values were obtained:
# Experiment in all cases: glycan array binding signal (z-score within array); higher = stronger binding
# Conditions in all cases: glycan notation: IUPAC condensed, linker removed
# Gal6S(b1-4)Glc6S = target: Gal6S(b1-4)Glc6S
# In short: (§1)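 The Consortium for Functional Glycomics database supplied 3228 glycan arrays, of which those lacking an available protein sequence were dropped. The binding signal, a within-array Z-score, was averaged across arrays of the same protein sequence and across linkers. Negative scores can be read as non-binding.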
# Gal6S(b1-4)GlcNAc = target: Gal6S(b1-4)GlcNAc
# In short: as §1
# Gal6S(b1-4)GlcNAc6S = target: Gal6S(b1-4)GlcNAc6S
# In short: as §1
# GalNAc(a1-3)Gal = target: GalNAc(a1-3)Gal
# In short: as §1
# GalNAc(a1-3)GalNAc = target: GalNAc(a1-3)GalNAc
# In short: as §1
# [1] = target: GalNAc(a1-3)GalNAc(b1-3)Gal(a1-4)Gal(b1-4)Glc
# In short: as §1
# [2] = target: GalNAc(a1-3)GalNAc(b1-3)Gal(a1-4)Gal(b1-4)GlcNAc
# In short: as §1
# GalNAc(b1-3)Gal = target: GalNAc(b1-3)Gal
# In short: as §1
# [3] = target: GalNAc(b1-3)Gal(a1-4)Gal(b1-4)GlcNAc
# In short: as §1
# [4] = target: GalNAc(b1-3)Gal(a1-4)Gal(b1-4)GlcNAc(b1-3)Gal(b1-4)Glc
# In short: as §1
# [5] = target: GalNAc(b1-3)Gal(a1-6)Gal(b1-4)Glc
# In short: as §1
# GalNAc(b1-3)GalNAc = target: GalNAc(b1-3)GalNAc
# In short: as §1
# GalNAc(b1-3)GlcNAc = target: GalNAc(b1-3)GlcNAc
# In short: as §1
# GalNAc(b1-4)Gal(b1-4)Glc = target: GalNAc(b1-4)Gal(b1-4)Glc
# In short: as §1
# GalNAc(b1-4)GlcNAc = target: GalNAc(b1-4)GlcNAc
# In short: as §1
# [6] = target: GalNAc(b1-4)GlcNAc(b1-2)Man
# In short: as §1
# [7] = target: GalNAc(b1-4)GlcNAc(b1-2)Man(a1-3)[GalNAc(b1-4)GlcNAc(b1-2)Man(a1-6)]Man(b1-4)GlcNAc(b1-4)GlcNAc
# In short: as §1
# [8] = target: GalNAc(b1-4)GlcNAc(b1-3)GalNAc(b1-4)GlcNAc
# In short: as §1
# GalNAc(b1-4)GlcNAc6S = target: GalNAc(b1-4)GlcNAc6S
# In short: as §1
# GalNAc(b1-6)GalNAc = target: GalNAc(b1-6)GalNAc
# In short: as §1
# GalNAc3S(b1-4)GlcNAc = target: GalNAc3S(b1-4)GlcNAc
# In short: as §1
# GalNAc3S(b1-4)GlcNAc3S = target: GalNAc3S(b1-4)GlcNAc3S
# In short: as §1
# [9] = target: GalNAc3S(b1-4)[Fuc(a1-3)]GlcNAc
# In short: as §1
# GalNAc4S6S(b1-4)GlcNAc = target: GalNAc4S6S(b1-4)GlcNAc
# In short: as §1
# GalNAc6S(b1-4)GlcNAc = target: GalNAc6S(b1-4)GlcNAc
# In short: as §1
# Glc(a1-4)Glc = target: Glc(a1-4)Glc
# In short: as §1
# [10] = target: Glc(a1-4)Glc(a1-4)Glc(a1-4)Glc
# In short: as §1
# Glc(a1-6)Glc(a1-6)Glc = target: Glc(a1-6)Glc(a1-6)Glc
# In short: as §1
# [11] = target: Glc(a1-6)Glc(a1-6)Glc(a1-6)Glc
# In short: as §1
# Glc(b1-4)Glc = target: Glc(b1-4)Glc
# In short: as §1
# Glc(b1-6)Glc = target: Glc(b1-6)Glc
# In short: as §1
# GlcA(b1-3)Gal = target: GlcA(b1-3)Gal
# In short: as §1
# GlcA(b1-3)GlcNAc = target: GlcA(b1-3)GlcNAc
# In short: as §1
# GlcA(b1-6)Gal = target: GlcA(b1-6)Gal
# In short: as §1
# [12] = target: GlcA3S(b1-3)Gal(b1-4)GlcNAc(b1-2)Man
# In short: as §1
# [13] = target: GlcA3S(b1-3)Gal(b1-4)GlcNAc(b1-3)Gal(b1-4)Glc
# In short: as §1
# [14] = target: GlcNAc(a1-3)Gal(b1-4)GlcNAc
# In short: as §1
# [15] = target: GlcNAc(a1-4)Gal(b1-3)GlcNAc
# In short: as §1
# [16] = target: GlcNAc(a1-4)Gal(b1-4)GalNAc
# In short: as §1
# [17] = target: GlcNAc(a1-4)Gal(b1-4)GlcNAc
# In short: as §1
# [18] = target: GlcNAc(a1-4)Gal(b1-4)GlcNAc(b1-3)Gal(b1-4)Glc
# In short: as §1
# [19] = target: GlcNAc(a1-4)Gal(b1-4)GlcNAc(b1-3)Gal(b1-4)GlcNAc
# In short: as §1
# [20] = target: GlcNAc(a1-4)Gal(b1-4)GlcNAc(b1-3)Gal(b1-4)GlcNAc(b1-3)Gal(b1-4)GlcNAc
# In short: as §1
# [21] = target: GlcNAc(a1-4)Gal(b1-4)GlcNAc(b1-3)Gal(b1-4)[Fuc(a1-3)]GlcNAc(b1-3)Gal(b1-4)[Fuc(a1-3)]GlcNAc
# In short: as §1
# [22] = target: GlcNAc(a1-6)Gal(b1-4)GlcNAc
# In short: as §1
binder,measurement,setting,value
B1,glycan array binding signal (z-score),Gal6S(b1-4)Glc6S,-0.533
same,glycan array binding signal (z-score),Gal6S(b1-4)GlcNAc,-0.544
same,glycan array binding signal (z-score),Gal6S(b1-4)GlcNAc6S,-0.555
same,glycan array binding signal (z-score),GalNAc(a1-3)Gal,-0.483
same,glycan array binding signal (z-score),GalNAc(a1-3)GalNAc,-0.513
same,glycan array binding signal (z-score),[1],-0.524
same,glycan array binding signal (z-score),[2],-0.444
same,glycan array binding signal (z-score),GalNAc(b1-3)Gal,-0.536
same,glycan array binding signal (z-score),[3],-0.547
same,glycan array binding signal (z-score),[4],-0.558
same,glycan array binding signal (z-score),[5],-0.516
same,glycan array binding signal (z-score),GalNAc(b1-3)GalNAc,-0.376
same,glycan array binding signal (z-score),GalNAc(b1-3)GlcNAc,-0.555
same,glycan array binding signal (z-score),GalNAc(b1-4)Gal(b1-4)Glc,-0.53
same,glycan array binding signal (z-score),GalNAc(b1-4)GlcNAc,-0.549
same,glycan array binding signal (z-score),[6],-0.551
same,glycan array binding signal (z-score),[7],-0.53
same,glycan array binding signal (z-score),[8],-0.259
same,glycan array binding signal (z-score),GalNAc(b1-4)GlcNAc6S,-0.556
same,glycan array binding signal (z-score),GalNAc(b1-6)GalNAc,-0.559
same,glycan array binding signal (z-score),GalNAc3S(b1-4)GlcNAc,-0.557
same,glycan array binding signal (z-score),GalNAc3S(b1-4)GlcNAc3S,-0.556
same,glycan array binding signal (z-score),[9],1.1
same,glycan array binding signal (z-score),GalNAc4S6S(b1-4)GlcNAc,-0.557
same,glycan array binding signal (z-score),GalNAc6S(b1-4)GlcNAc,-0.557
same,glycan array binding signal (z-score),Glc(a1-4)Glc,-0.541
same,glycan array binding signal (z-score),[10],-0.525
same,glycan array binding signal (z-score),Glc(a1-6)Glc(a1-6)Glc,-0.491
same,glycan array binding signal (z-score),[11],-0.506
same,glycan array binding signal (z-score),Glc(b1-4)Glc,-0.503
same,glycan array binding signal (z-score),Glc(b1-6)Glc,-0.502
same,glycan array binding signal (z-score),GlcA(b1-3)Gal,-0.542
same,glycan array binding signal (z-score),GlcA(b1-3)GlcNAc,-0.508
same,glycan array binding signal (z-score),GlcA(b1-6)Gal,-0.525
same,glycan array binding signal (z-score),[12],-0.548
same,glycan array binding signal (z-score),[13],-0.549
same,glycan array binding signal (z-score),[14],0.745
same,glycan array binding signal (z-score),[15],-0.555
same,glycan array binding signal (z-score),[16],-0.475
same,glycan array binding signal (z-score),[17],-0.543
same,glycan array binding signal (z-score),[18],-0.549
same,glycan array binding signal (z-score),[19],-0.524
same,glycan array binding signal (z-score),[20],-0.548
same,glycan array binding signal (z-score),[21],1.73
same,glycan array binding signal (z-score),[22],-0.532
